In PubChem BioAssay AID624296 (National Center for Advancing Translational Sciences (NCATS), 2012):
The whole screen tested about 350,000 compounds, of which about 9,900 (2.8%) were called active. This list was built around the results that the source calls inconclusive (neither active nor inactive); the mix of calls is not that of the screen. The call rests on the fitted dose curve; in most records, active means well fitted activation curve with a large enough effect; inconclusive means small, poorly fitted or top-dose-only effect; inactive means no such curve, though single readings can be large or run the other way. No potency is given beside an inconclusive call; the fits are too rough.

Assay: A quantitative high throughput screen for small molecules that induce DNA re-replication in MCF 10a normal breast cells. Further: nearly all actives have a fitted effect of over 50% in size.
Details: MCF 10A DNA re-replication, Hoechst nuclear intensity, 48 h; series mostly up to 46.1 µM
Potency means the concentration at half of the fitted maximal effect; tags describe the fitted curve by direction and shape.

SMILES	Potency
CC1CCCC(NC(=O)C2COc3ccccc3O2)C1C (centres undefined)	inactive
CC(=O)c1ccc(OCCn2cnc3ccccc32)cc1	inconclusive [activator, full curve, poor fit]
CC(C)NC(=O)c1sc2nc(-c3cccs3)cc(-c3cccs3)c2c1N	active: 3.66 µM
CCOC(=O)C1(CCOc2ccccc2)CCN(Cc2cc(OC)cc(OC)c2)CC1	inconclusive [activator, partial curve, poor fit]
Cc1cc(C)c(C(=O)N2CCCC(CNS(=O)(=O)c3cccs3)C2)o1 (centres undefined)	inactive
COc1ccc(N(CC(=O)N2CCN(c3ccc(Cl)cc3)CC2)S(=O)(=O)c2c(C)n[nH]c2C)cc1	inactive
COc1ccc(-c2cc(C)nc(SCC(=O)c3cccc([N+](=O)[O-])c3)n2)cc1	inconclusive [activator, partial curve, poor fit]
Cc1cc(=O)[nH]c(Nc2cccc(F)c2)n1	inconclusive [activator, single point]
COc1ccc(NC(=O)CN(C)C(=O)c2cccc(NS(=O)(=O)c3ccc(Br)cc3)c2)cc1	inconclusive [activator, single point]
COc1cccc(-n2c(SCC(N)=O)nc3c([nH]c4ccccc43)c2=O)c1	inactive
O=C(Cn1nc(C(=O)O)c2ccccc2c1=O)Nc1cc(Cl)cc(Cl)c1	inconclusive [activator, partial curve, poor fit]
Cc1cc(C)n2c3c(c(C#N)c2n1)CC(C)(C)OC3	inconclusive [activator, single point]
Cc1ccnc(NC(=O)Nc2ccc3c(c2)OCO3)c1	inactive
CCOc1ccc(/C=C(\C#N)C(=O)NCC2CCCO2)cc1OCC (centres undefined)	inactive
Cc1ccc(-c2cc(C(=O)Nc3cccc(S(=O)(=O)N(C)C)c3)c3ccccc3n2)o1	inconclusive [activator, partial curve]
COc1ccc(CNC(=O)C(=O)NC2CCC(C)CC2)cc1 (centres undefined)	inconclusive [activator, partial curve, poor fit]
COc1cc(Br)cc(C2C3=C(CCCC3=O)N(c3ccc(F)cc3)C3=C2C(=O)CCC3)c1O	inconclusive [activator, single point]
O=[N+]([O-])c1cccc(/C=C/c2nc[nH]c2[N+](=O)[O-])c1	inactive
O=c1cc(CN2CCc3ccccc32)nc2sccn12	inconclusive [activator, single point]
